According to the supplement of paper PMC10369915:
The list shows a part of the results. Rule as the data show it: active = 3.2 or more and inactive = the rest. Most of these values are background signal.

molecular target: SHP2 C-SH2 domain E139D; assay: enrichment score (SH2-bound / input frequency) (ratio); bacterial display of known human phosphotyrosine sites (pTyr-Var adds point mutants) read by sequencing; higher = stronger binding; tyrosines were phosphorylated by kinases first; conditions: peptide library: pTyr-Var
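Also: displayed peptides selected on beads carrying the immobilized SH2 domain, with library peptides lacking any tyrosine serving as negative controls.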

Enrichment score, inactive:
FLEKFYKFGCR [NNMT_Y25_S29C_YF] 1.46, PVGDAYKKKGL [NMNAT1_Y55] 0.374, VFAPDFIAGVS [NOB1_Y366_Y366F] 1.1, IVLRSYPASGH [NID2_Y449] 1.02, SLTRLCVGENA [NLRP3_Y861_Y861C] 0.736, GLIPAYHRVIV [NMNAT1_Y64_M69V] 1.33, PVGDVYKKKGL [NMNAT1_Y55_A54V] 0.355, SHLSSYTTHPQ [NIPBL_Y195_P192L] 0.946, AGIENYTSRFG [NKD2_Y256] 0.853, TSYSGYRYHRH [NKAPL_Y94] 0.812, SWSTSYSGYRC [NKAPL_Y91_Y96C] 0.947, MTFVFYRENLR [NLRP14_Y443_YF] 1.7, SWSTSYSGFRF [NKAPL_Y91_YF] 1.66, GFWPRYVKVGS [NOG_Y172_R167G] 0.65, VFFGSYSCPFG [NKAP_Y104_R106C_YF] 1.11, YLEKYYKFGCR [NNMT_Y25_S29C] 1.48, GSSEDYLHMVH [NIPBL_Y247] 0.837, MTFMFYRENLR [NLRP14_Y443_V441M_YF] 1.24, TSFSGYRFHRH [NKAPL_Y94_YF] 2.02

molecular target: SHP2 C-SH2 domain wild-type; assay: as above; conditions: peptide library: pTyr-Var

Enrichment score, inactive:
FLEKFYKFGCR [NNMT_Y25_S29C_YF] 1.55, PVGDAYKKKGL [NMNAT1_Y55] 0.532, VFAPDFIAGVS [NOB1_Y366_Y366F] 0.746, IVLRSYPASGH [NID2_Y449] 0.843, SLTRLCVGENA [NLRP3_Y861_Y861C] 0.84, GLIPAYHRVIV [NMNAT1_Y64_M69V] 1.35, PVGDVYKKKGL [NMNAT1_Y55_A54V] 0.388, SHLSSYTTHPQ [NIPBL_Y195_P192L] 1.21, AGIENYTSRFG [NKD2_Y256] 0.741, TSYSGYRYHRH [NKAPL_Y94] 0.802, SWSTSYSGYRC [NKAPL_Y91_Y96C] 1, MTFVFYRENLR [NLRP14_Y443_YF] 1.24, SWSTSYSGFRF [NKAPL_Y91_YF] 1.83, GFWPRYVKVGS [NOG_Y172_R167G] 0.496, VFFGSYSCPFG [NKAP_Y104_R106C_YF] 1.17, YLEKYYKFGCR [NNMT_Y25_S29C] 2.06, GSSEDYLHMVH [NIPBL_Y247] 0.713, MTFMFYRENLR [NLRP14_Y443_V441M_YF] 1.22, TSFSGYRFHRH [NKAPL_Y94_YF] 1.5

molecular target: SHP2 N-SH2 domain L43F; assay: as above; conditions: peptide library: pTyr-Var

Enrichment score, inactive:
FLEKFYKFGCR [NNMT_Y25_S29C_YF] 1.51, PVGDAYKKKGL [NMNAT1_Y55] 0.581, VFAPDFIAGVS [NOB1_Y366_Y366F] 1.01, IVLRSYPASGH [NID2_Y449] 0.989, SLTRLCVGENA [NLRP3_Y861_Y861C] 0.785, GLIPAYHRVIV [NMNAT1_Y64_M69V] 1.13, PVGDVYKKKGL [NMNAT1_Y55_A54V] 0.573, SHLSSYTTHPQ [NIPBL_Y195_P192L] 0.984, AGIENYTSRFG [NKD2_Y256] 0.59, TSYSGYRYHRH [NKAPL_Y94] 0.696, SWSTSYSGYRC [NKAPL_Y91_Y96C] 0.75, MTFVFYRENLR [NLRP14_Y443_YF] 1.28, SWSTSYSGFRF [NKAPL_Y91_YF] 1.7, GFWPRYVKVGS [NOG_Y172_R167G] 0.583, VFFGSYSCPFG [NKAP_Y104_R106C_YF] 0.913, YLEKYYKFGCR [NNMT_Y25_S29C] 1.52, GSSEDYLHMVH [NIPBL_Y247] 0.663, MTFMFYRENLR [NLRP14_Y443_V441M_YF] 1.25, TSFSGYRFHRH [NKAPL_Y94_YF] 1.79

molecular target: SHP2 N-SH2 domain T42A; assay: as above; conditions: peptide library: pTyr-Var

Enrichment score, inactive:
FLEKFYKFGCR [NNMT_Y25_S29C_YF] 1.24, PVGDAYKKKGL [NMNAT1_Y55] 0.432, VFAPDFIAGVS [NOB1_Y366_Y366F] 0.955, IVLRSYPASGH [NID2_Y449] 0.947, SLTRLCVGENA [NLRP3_Y861_Y861C] 0.662, GLIPAYHRVIV [NMNAT1_Y64_M69V] 1.39, PVGDVYKKKGL [NMNAT1_Y55_A54V] 0.402, SHLSSYTTHPQ [NIPBL_Y195_P192L] 0.7, AGIENYTSRFG [NKD2_Y256] 0.556, TSYSGYRYHRH [NKAPL_Y94] 0.701, SWSTSYSGYRC [NKAPL_Y91_Y96C] 0.87, MTFVFYRENLR [NLRP14_Y443_YF] 1.42, SWSTSYSGFRF [NKAPL_Y91_YF] 1.62, GFWPRYVKVGS [NOG_Y172_R167G] 0.53, VFFGSYSCPFG [NKAP_Y104_R106C_YF] 1.12, YLEKYYKFGCR [NNMT_Y25_S29C] 1.78, GSSEDYLHMVH [NIPBL_Y247] 0.613, MTFMFYRENLR [NLRP14_Y443_V441M_YF] 1.34, TSFSGYRFHRH [NKAPL_Y94_YF] 1.37

molecular target: SHP2 N-SH2 domain T52S; assay: as above; conditions: peptide library: pTyr-Var

Enrichment score, inactive:
FLEKFYKFGCR [NNMT_Y25_S29C_YF] 1.53, PVGDAYKKKGL [NMNAT1_Y55] 0.411, VFAPDFIAGVS [NOB1_Y366_Y366F] 1.13, IVLRSYPASGH [NID2_Y449] 1.07, SLTRLCVGENA [NLRP3_Y861_Y861C] 0.689, GLIPAYHRVIV [NMNAT1_Y64_M69V] 1.39, PVGDVYKKKGL [NMNAT1_Y55_A54V] 0.346, SHLSSYTTHPQ [NIPBL_Y195_P192L] 0.808, AGIENYTSRFG [NKD2_Y256] 0.669, TSYSGYRYHRH [NKAPL_Y94] 0.796, SWSTSYSGYRC [NKAPL_Y91_Y96C] 0.68, MTFVFYRENLR [NLRP14_Y443_YF] 1.87, SWSTSYSGFRF [NKAPL_Y91_YF] 1.76, GFWPRYVKVGS [NOG_Y172_R167G] 0.711, VFFGSYSCPFG [NKAP_Y104_R106C_YF] 0.861, YLEKYYKFGCR [NNMT_Y25_S29C] 1.69, GSSEDYLHMVH [NIPBL_Y247] 0.815, MTFMFYRENLR [NLRP14_Y443_V441M_YF] 1.26, TSFSGYRFHRH [NKAPL_Y94_YF] 1.61

molecular target: SHP2 N-SH2 domain wild-type; assay: as above; conditions: peptide library: pTyr-Var

Enrichment score, inactive:
FLEKFYKFGCR [NNMT_Y25_S29C_YF] 1.5, PVGDAYKKKGL [NMNAT1_Y55] 0.644, VFAPDFIAGVS [NOB1_Y366_Y366F] 1.13, IVLRSYPASGH [NID2_Y449] 0.943, SLTRLCVGENA [NLRP3_Y861_Y861C] 0.78, GLIPAYHRVIV [NMNAT1_Y64_M69V] 1.38, PVGDVYKKKGL [NMNAT1_Y55_A54V] 0.406, SHLSSYTTHPQ [NIPBL_Y195_P192L] 0.979, AGIENYTSRFG [NKD2_Y256] 0.612, TSYSGYRYHRH [NKAPL_Y94] 0.619, SWSTSYSGYRC [NKAPL_Y91_Y96C] 1.09, MTFVFYRENLR [NLRP14_Y443_YF] 1.37, SWSTSYSGFRF [NKAPL_Y91_YF] 1.47, GFWPRYVKVGS [NOG_Y172_R167G] 0.699, VFFGSYSCPFG [NKAP_Y104_R106C_YF] 1.21, YLEKYYKFGCR [NNMT_Y25_S29C] 2.29, GSSEDYLHMVH [NIPBL_Y247] 0.86, MTFMFYRENLR [NLRP14_Y443_V441M_YF] 1.36, TSFSGYRFHRH [NKAPL_Y94_YF] 1.4
